Holding throughout (conditions): 20 mM HEPES pH 7.9, 100 mM NaCl, 1 mM DTT, 0.2 mg/mL BSA, 0.02% Triton X-100, 2% milk, 0.4 mg/mL salmon testes DNA; 1 h; temperature not stated; high values mean tight binding; double strand, one strand shown; sequences stand for … in GCCTAGCAC…GTGCTAGGTCTTGATTCGCTTGACGCTGCTG
In one test the target is PU.1 (IVT) (UniProt P17947). Nature of the test: protein-binding microarray (PBM).
The target of test [1] is T1, FLI1 (endogenous, THP-1 nuclear extract) (UniProt Q01543).
T1 sequence: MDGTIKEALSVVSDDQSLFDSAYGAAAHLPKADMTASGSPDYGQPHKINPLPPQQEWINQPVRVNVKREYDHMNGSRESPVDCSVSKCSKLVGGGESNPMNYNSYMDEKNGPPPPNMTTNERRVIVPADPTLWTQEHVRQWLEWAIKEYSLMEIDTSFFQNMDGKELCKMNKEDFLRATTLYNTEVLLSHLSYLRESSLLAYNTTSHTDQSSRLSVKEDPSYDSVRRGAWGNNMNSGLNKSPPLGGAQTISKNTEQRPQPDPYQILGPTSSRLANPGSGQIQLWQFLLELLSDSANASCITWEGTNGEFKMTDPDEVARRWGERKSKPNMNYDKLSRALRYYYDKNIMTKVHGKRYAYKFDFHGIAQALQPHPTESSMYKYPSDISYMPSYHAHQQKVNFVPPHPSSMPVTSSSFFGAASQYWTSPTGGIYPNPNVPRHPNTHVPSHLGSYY
Kind of test: nuclear extract protein-binding microarray (nextPBM).

The subject of test [2] is PU.1 (endogenous, THP-1 nuclear extract) + IRF8 (endogenous, THP-1 nuclear extract). Described as above.

Some of the results follow. For part of these data: At the low end of the ranking, values are background and their order means little. For part of these data: The protein was read in a cell extract, so binding may be indirect.

AGAAAAGGGAAGCGAAACTT: the binding signal with PU.1 (IVT) was 4.18 z-score; in test [1] it was 3.24 z-score; in test [2] it was 53.3 z-score.
The matching figures for CTGCCAGGGTAGTGAAAGCA: -0.469 z-score, -0.794 z-score and 2.34 z-score.
For AAAAATAGGAAGTGAAACTG, the binding signal with PU.1 (IVT) was 6.16 z-score; in test [1], 4.46 z-score; in test [2], 67.2 z-score.
The matching figures for CTGGCAGGGAACTTAAACTC: 0.978 z-score, -0.135 z-score and 0.879 z-score.
Taken in the same sequence, the figures for ACCTCTGGGAACTGAAACTG were 0.249 z-score, 0.198 z-score and 13.6 z-score.
Taken in the same sequence, the figures for GATAAGAGGAACTGAAAGGT were 4.21 z-score, 1.33 z-score and 2.35 z-score.
TCAGAGGAGAAGTGAAACCT: the figures for the binding signal (with PU.1 (IVT); in test [1]; in test [2]) were 1.11 z-score, 0.785 z-score and 23.7 z-score, respectively.
Taken in the same sequence, the figures for TGGCAGAGGGAGTGAAACTA were -0.14 z-score, -0.245 z-score and 19.2 z-score.
The matching figures for AAAAAAAGGGAATGAAAGTA: 1.7 z-score, -0.0634 z-score and 3.64 z-score.
Taken in the same sequence, the figures for TGGCAGATGAAGTGAAACTA were 0.23 z-score, -0.744 z-score and 33.3 z-score.
As for GATAAGAGGAACTGAAAGCC, the figures for the binding signal (in the test with PU.1 (IVT); in test [1]; in test [2]) were 4.49 z-score, 1.4 z-score and 3.69 z-score, respectively.
As to TGAAAGGAGAAGTGAAACCT, the binding signal with PU.1 (IVT) was found to be 3.8 z-score; in test [1], 2.2 z-score; in test [2], 49.3 z-score.
Taken in the same sequence, the figures for TGGCAGAGGAGGTGAAACTA were -0.448 z-score, 0.256 z-score and 9.32 z-score.
Taken in the same sequence, the figures for AAAAAGGGGAAATGAAACTA were 6.37 z-score, 3.94 z-score and 64.3 z-score.
As to TAAGGGAGGAACTGAAACCA, the binding signal in the test with PU.1 (IVT) stood at 1.92 z-score; in test [1], 1.51 z-score; in test [2], 19.7 z-score.
With CTGGCAGGGAACTGAAACTA, the binding signal with PU.1 (IVT) was found to be 0.814 z-score; in test [1], 0.227 z-score; in test [2], 21.4 z-score.
As for TGGAAGAGGAAGTGAAACTA, the binding signal with PU.1 (IVT) stood at 6.34 z-score; in test [1], 4.31 z-score; in test [2], 84.8 z-score.
The matching figures for TGAAACAGGAAGTGAGACCA: 6.68 z-score, 5.49 z-score and 4.8 z-score.
The matching figures for GCAAAGGGGAAATGAAACTT: 3.31 z-score, 2.54 z-score and 25.3 z-score.
Regarding TGAAGCAGGAAGTGAAACCA, the binding signal with PU.1 (IVT) turned out to be 3.23 z-score; in test [1], 4.66 z-score; in test [2], 59.6 z-score.
As to TGAAACAGGGAGTGAAACCA, the values for the binding signal (in the test with PU.1 (IVT); in test [1]; in test [2]) were -0.393 z-score, -0.763 z-score and 12.6 z-score, respectively.

(Values after article PMC6451091.)
